Reference: the supplement of paper PMC3334620
In all, about 33,000 sequences were measured (“E-score (-0.5 to 0.5)”: median about -0.021, highest 2% from about 0.32 on). The list shows a part of the results.

molecular target: T1, Zap1 (UniProt P47043); test: PBM E-score (8-mer binding enrichment) (E-score (-0.5 to 0.5)); higher = stronger / more preferred TF binding; most listed sequences are background and not binding sites; conditions: protein concentration: 200 nM; construct: GST-full length
T1 sequence: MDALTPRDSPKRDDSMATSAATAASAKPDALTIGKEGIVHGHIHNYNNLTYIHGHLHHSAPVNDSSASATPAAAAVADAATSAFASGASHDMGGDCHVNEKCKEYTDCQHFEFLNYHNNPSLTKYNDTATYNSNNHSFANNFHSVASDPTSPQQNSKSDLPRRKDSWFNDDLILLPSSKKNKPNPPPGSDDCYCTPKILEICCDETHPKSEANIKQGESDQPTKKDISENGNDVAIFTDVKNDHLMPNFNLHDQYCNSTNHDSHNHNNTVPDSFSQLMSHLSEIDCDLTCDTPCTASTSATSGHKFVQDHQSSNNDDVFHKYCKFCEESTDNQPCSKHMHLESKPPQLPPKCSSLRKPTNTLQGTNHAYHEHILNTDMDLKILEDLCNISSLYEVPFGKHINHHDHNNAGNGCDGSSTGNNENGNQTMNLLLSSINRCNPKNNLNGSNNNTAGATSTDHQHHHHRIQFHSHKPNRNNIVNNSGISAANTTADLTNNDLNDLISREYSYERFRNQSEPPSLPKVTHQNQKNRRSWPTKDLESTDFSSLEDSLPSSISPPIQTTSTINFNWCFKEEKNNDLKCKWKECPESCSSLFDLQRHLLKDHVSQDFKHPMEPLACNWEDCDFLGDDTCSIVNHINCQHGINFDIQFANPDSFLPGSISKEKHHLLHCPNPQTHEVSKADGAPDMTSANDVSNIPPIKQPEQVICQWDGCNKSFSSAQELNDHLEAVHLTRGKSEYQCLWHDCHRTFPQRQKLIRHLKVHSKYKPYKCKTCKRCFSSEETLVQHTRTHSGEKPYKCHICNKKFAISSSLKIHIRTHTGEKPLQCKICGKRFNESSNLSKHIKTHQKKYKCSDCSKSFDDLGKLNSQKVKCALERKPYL
Method in brief: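 E-scores (a modified Wilcoxon-Mann-Whitney statistic) were assigned by the Universal PBM Analysis Suite to every ungapped eight-base word pooled with its reverse complement. The input came from universal all-10-mer Agilent arrays made double-stranded by primer extension and probed with GST-tagged yeast transcription factors at about 100-200 nM. Fluorescent anti-GST detected bound protein, and masliner normalised the scans.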

Sequence | PBM E-score
CAGATTCA | -0.274
GATTCTGC | -0.0686
GTGGTAAA | -0.0285
ATCAAACG | -0.0558
GCGATCGA | -0.0858
ACTTCGGC | -0.103
ATTGAAAA | 0.208
GCTAATTA | -0.00419
ATCCCGAT | -0.0921
CCCAACAC | -0.121
ACTATAAT | 0.188
CACTATGA | -0.108
AGGAAATC | -0.117
ACGTTGCG | -0.199
CCACAAAA | 0.237
CCTGTAAC | 0.209
GCCATAGC | -0.125
AAATCATC | -0.193
AGACTCTG | 0.0788
AAAAATGT | 0.0172
AGAACAAG | 0.16
AATGATCC | -0.0244
AAGAGGCA | -0.0754
AAGTAGCT | -0.276
GTTGTATA | 0.117

Sequence | PBM E-score
CACGTGCC | -0.0659
CTGTTTCC | -0.193
AGTTAGAG | -0.135
CCAAGCAA | -0.119
AGAATTGA | 0.0335
GTTAGTGA | 0.00632
ACGTGTGC | -0.235
AAAGTCGG | -0.17
GACGGAAC | -0.159
TTATCCAA | 0.207
AGGTCTGA | -0.0295
AGCAGTGG | -0.0878
CTGCGACC | 0.117
AACGCCGA | -0.15
AGCGGAAC | -0.134
CTAGCTTA | -0.0605
GGACAATA | 0.148
ATAGCGGA | -0.166
ACTCGAGG | 0.0452
AGAAAAAT | 0.165
CCTTGCCG | -0.2
GACAGCGC | -0.171
AATGGGCC | 0.0184
ATCACAGC | -0.0564
CCCTGATC | -0.0406

Sequence | PBM E-score
CGAGAAGC | -0.229
CCCATCAC | 0.0418
CTGTCATA | -0.0292
ACCGGTCG | 0.0185
CCTGCTAC | -0.0218
ACTCCGCA | -0.0707
ACAGAACA | 0.162
TAGGCGCA | -0.162
CCATGGCA | 0.133
GCGGAGTA | -0.0663
ACCCGGGA | 0.206
CACAATCG | -0.0767
CCGCTAAC | 0.219
GAAACAGC | -0.189
AGGTTACT | 0.457
CAGCGGAA | -0.224
GTCAGAAC | 0.0394
CAATATCA | 0.0291
GACGATTA | -0.0471
CCGACCCG | -0.00013
GGAGTTAC | 0.137
AATCACAC | 0.0533
CACCCCGG | 0.116
GAAGACGC | -0.124
CTATCTTA | 0.0332

Sequence | PBM E-score
GCTAAATA | -0.038
CCGGGTGC | 0.0477
CAAATGTA | 0.142
CTCAACAG | -0.0658
GAGTTTGC | -0.106
ATGGTGCG | 0.0412
ACGGCCCT | 0.00462
CTAAGCTC | -0.082
CACTTAAG | 0.0831
GCCCATGA | 0.0195
GCACGCCC | -0.00678
AATCATGT | 0.0175
GGTCCTCA | 0.0332
AATGGCAG | 0.0472
AGGTGACA | 0.0888
ACATAACA | 0.132
ATGCCTTA | -0.136
ATATTTGA | -0.071
AGTCACCA | 0.0389
CCCGTCTA | -0.0803
GAGGGGAC | -0.0389
CATTACCG | 0.0828
CGATTAAC | 0.124
ACACATCA | -0.158
ACAGACCG | -0.056

Sequence | PBM E-score
TCTGGACA | -0.0407
ACTGTCTC | -0.258
ACTTAAGT | 0.0877
ACAGAGCG | -0.182
ATTGTGCG | -0.0998
AGCTTCGA | -0.0403
AGGATTCG | 0.0176
CATGAGTA | -0.147
ATTGCCGA | -0.283
CTATATAG | 0.0438
AGCCTGCA | -0.237
CCAATTTA | 0.159
CTTCCCCA | -0.0454
AGAATGGA | -0.0517
CTAAAGTA | -0.094
GGTGTACA | 0.0255
AACGCCTC | -0.0586
CCAGTAAC | 0.245
CGCTTATC | -0.136
ACAACCTC | 0.31
ACCCGTAG | 0.107
ATCGCAAG | 0.104
CAGGGGCG | -0.132
CTGTGTGA | -0.0255
CATTGCGG | 0.0854

Sequence | PBM E-score
AACGACCT | 0.211
TTCATGAA | 0.157
GCGTGTGA | -0.0561
CAGCGCGA | -0.11
GGAGTAAC | 0.199
AGCGATCA | -0.104
CGCTACCG | 0.0227
AGCATAGC | -0.28
GGTCTCTA | 0.101
AAAGCAGG | -0.075
GGTTGGTA | 0.283
GCATCCCA | -0.141
CATGGGGG | -0.138
TGCCGGCA | -0.204
GCCCCGAA | 0.0199
CTATGATA | 0.00378
CAGCTCTA | -0.265
AAGCTCCT | -0.269
AAAAATCG | -0.144
AAACGGGA | -0.191
GTGCAGGA | -0.245
AAGTTCCG | -0.0642
TACTGAGA | -0.0902
ACTTCTTA | 0.0552
GTCGTTTA | 0.225

Sequence | PBM E-score
ACCCCAGT | 0.25
AGATGATG | -0.0346
CAGGTAGA | 0.193
CAGGAAGG | -0.271
CTTCCATA | -0.188
GGCCGTTA | 0.168
GGGGGGCA | -0.433
TGACCCCA | 0.31
AGTTAACG | 0.157
ACGGGCTG | -0.137
GGCTAGCC | -0.248
TCGGTAGA | 0.0519
CAGTCTAA | 0.00889
AAAATCTT | -0.107
AGAGGGAG | -0.185
ACAGTGAG | -0.0155
ACCGGCAC | 0.0526
CTTAGACC | -0.0476
GCTCACTA | 0.00041
GGGCATTA | -0.0349
CTTAGCTC | -0.15
AATTACCT | 0.253
